Data on one molecule can be found in patent US20220128561A1.

Test [1] has as its target Human apo-sGC (H105F) (human) (UniProt Q02108). Briefly: SPR. On the technique in general: In SPR one partner is held on a chip, and binding of the other changes the refractive index at the surface.
For test [2], the target named is rat apo-sGC (H105F) (rat) (UniProt P19686). Description: SPR.
Test [3] has the same target. Description: capture ELISA: IgG coated at 5 ug/mL, rat apo-sGC (H105F) titrated, streptavidin-HRP, OD 450 nm; the axis gives the sGC concentration. On the technique in general: ELISA stands for enzyme-linked immunosorbent assay.
The target in test [4] is Human apo-sGC (H105F) (human) (UniProt Q02108). Description: capture ELISA: IgG coated at 5 ug/mL, human apo-sGC (H105F) titrated, streptavidin-HRP, OD 450 nm; the axis gives the sGC concentration.

UniProt P19686, sequence (P19686 whole entry, chain 1 of 2): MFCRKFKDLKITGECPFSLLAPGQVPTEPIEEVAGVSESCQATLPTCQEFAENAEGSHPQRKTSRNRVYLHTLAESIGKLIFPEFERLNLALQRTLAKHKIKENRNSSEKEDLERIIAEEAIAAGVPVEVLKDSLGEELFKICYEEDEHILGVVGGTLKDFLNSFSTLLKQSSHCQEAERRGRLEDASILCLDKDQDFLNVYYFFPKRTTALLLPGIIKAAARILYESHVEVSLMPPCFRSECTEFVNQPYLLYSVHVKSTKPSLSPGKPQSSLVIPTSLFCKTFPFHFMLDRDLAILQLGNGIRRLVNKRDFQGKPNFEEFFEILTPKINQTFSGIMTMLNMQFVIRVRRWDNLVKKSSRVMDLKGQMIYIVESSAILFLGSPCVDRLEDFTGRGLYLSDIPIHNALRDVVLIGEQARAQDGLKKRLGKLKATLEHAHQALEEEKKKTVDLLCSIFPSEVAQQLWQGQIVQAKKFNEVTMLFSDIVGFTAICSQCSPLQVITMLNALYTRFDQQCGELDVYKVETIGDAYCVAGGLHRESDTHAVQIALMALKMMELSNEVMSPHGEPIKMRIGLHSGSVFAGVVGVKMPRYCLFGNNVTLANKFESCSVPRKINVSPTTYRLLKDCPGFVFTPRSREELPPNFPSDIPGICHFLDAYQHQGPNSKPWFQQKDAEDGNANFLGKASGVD
UniProt P19686, sequence (P20595 whole entry H105F, chain 2 of 2, further chain): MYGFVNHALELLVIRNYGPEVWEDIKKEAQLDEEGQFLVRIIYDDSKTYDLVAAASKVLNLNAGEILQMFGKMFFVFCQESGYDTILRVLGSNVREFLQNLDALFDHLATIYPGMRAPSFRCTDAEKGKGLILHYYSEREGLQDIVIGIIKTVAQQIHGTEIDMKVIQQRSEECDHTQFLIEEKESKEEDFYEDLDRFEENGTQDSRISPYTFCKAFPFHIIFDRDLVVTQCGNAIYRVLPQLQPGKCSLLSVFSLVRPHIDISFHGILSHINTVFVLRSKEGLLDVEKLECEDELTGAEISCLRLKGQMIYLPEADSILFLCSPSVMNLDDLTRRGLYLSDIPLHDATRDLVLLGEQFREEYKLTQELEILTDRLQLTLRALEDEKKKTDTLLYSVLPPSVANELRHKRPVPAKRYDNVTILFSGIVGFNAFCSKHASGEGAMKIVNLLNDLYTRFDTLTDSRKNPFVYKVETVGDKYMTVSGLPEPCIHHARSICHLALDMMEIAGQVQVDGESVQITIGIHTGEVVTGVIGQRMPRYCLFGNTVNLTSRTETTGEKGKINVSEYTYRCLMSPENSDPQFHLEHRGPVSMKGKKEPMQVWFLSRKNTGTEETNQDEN
UniProt Q02108, sequence (Q02108 whole entry, chain 1 of 2): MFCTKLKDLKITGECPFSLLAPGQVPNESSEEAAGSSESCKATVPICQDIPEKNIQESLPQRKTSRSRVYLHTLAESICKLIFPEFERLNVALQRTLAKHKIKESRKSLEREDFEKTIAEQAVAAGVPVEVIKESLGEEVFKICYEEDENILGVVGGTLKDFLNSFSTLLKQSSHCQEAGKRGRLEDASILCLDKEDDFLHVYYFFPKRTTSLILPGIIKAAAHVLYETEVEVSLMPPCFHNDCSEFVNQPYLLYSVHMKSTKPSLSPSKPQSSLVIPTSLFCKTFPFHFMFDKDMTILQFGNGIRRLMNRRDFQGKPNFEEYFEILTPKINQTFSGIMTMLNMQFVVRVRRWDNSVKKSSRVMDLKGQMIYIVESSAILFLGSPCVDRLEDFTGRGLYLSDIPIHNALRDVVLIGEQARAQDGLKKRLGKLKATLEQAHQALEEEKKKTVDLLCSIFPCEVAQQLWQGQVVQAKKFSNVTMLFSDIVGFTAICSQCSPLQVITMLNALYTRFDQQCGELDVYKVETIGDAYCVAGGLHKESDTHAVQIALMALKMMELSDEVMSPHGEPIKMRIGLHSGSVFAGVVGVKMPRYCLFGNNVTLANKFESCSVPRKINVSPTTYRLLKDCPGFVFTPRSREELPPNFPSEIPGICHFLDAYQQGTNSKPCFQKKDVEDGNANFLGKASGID
UniProt Q02108, sequence (Q02153 whole entry H105F, chain 2 of 2, further chain): as the sequence (P20595 whole entry H105F, chain 2 of 2, further chain) above, with S171N, D205E, K247N, A299T, N615K, E618D, N619D counted along it

B1: TPP15717 (antibody, human IgG1, lambda, V domains shown)
VH: [about 100 residues not spelt out]EQWLGAEGAFDIWGQGTLVTVSS
VL: QSVLTQPPSASGTPGQRVTISCTGSSSNIGAGYVVHWYQQLPGTAPKLLIYNNSQRPPGVPDRFSGSKSGTSASLAISGLRSEDEADYYCASWDDSLSGVVFGGGTKLTVLG
A word on the Kd: it is the concentration at which binding is half-saturated. A lower Kd goes with tighter binding. Usually EC50 (read off the curve) stands for the concentration at which the effect is half-maximal. For B1, the Kd in test [1] came out at 72 nM; in test [2], 45 nM. The EC50 (read off the curve) in test [3] was 50 nM; in test [4], 60 nM.
